Reference: patent publication US8685954B2, “Methods and compositions for treating cancer using proteasome inhibitors” (priority 2002, dated 2014)

Tested on: MM.1S cells

COc1cccc2c1C(=O)c1c(O)c3c(c(O)c1C2=O)C[C@@](O)(C(=O)CO)C[C@@H]3O[C@H]1C[C@H](N)[C@H](O)[C@H](C)O1 [doxorubicin]
LD50 for doxorubicin in MM.1S cells (in the absence of PS-341): 150 nM
LD50 for doxorubicin in MM.1S cells (in the presence of PS-341 (2 nM)): 26 nM

Like-named read-outs stand apart in the source and are kept apart here.
